From paper PMC4336329 (PLoS ONE, 2015)
The campaign covered roughly 310,000 compounds. About 14,000 (4.5%) showed an effect of 50% or more. The effect is printed as a negative number. Some of the results follow.

Target: human ether-à-go-go-related gene (hERG) potassium channel (human, UniProt Q12809)
Experiment: primary screen, population patch clamp on CHO cells stably expressing hERG
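Further: peak tail current of the secondary pulse compared with the same well before compound.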

human ether-à-go-go-related gene (hERG) potassium channel, sequence (Q12809 whole entry, looked up): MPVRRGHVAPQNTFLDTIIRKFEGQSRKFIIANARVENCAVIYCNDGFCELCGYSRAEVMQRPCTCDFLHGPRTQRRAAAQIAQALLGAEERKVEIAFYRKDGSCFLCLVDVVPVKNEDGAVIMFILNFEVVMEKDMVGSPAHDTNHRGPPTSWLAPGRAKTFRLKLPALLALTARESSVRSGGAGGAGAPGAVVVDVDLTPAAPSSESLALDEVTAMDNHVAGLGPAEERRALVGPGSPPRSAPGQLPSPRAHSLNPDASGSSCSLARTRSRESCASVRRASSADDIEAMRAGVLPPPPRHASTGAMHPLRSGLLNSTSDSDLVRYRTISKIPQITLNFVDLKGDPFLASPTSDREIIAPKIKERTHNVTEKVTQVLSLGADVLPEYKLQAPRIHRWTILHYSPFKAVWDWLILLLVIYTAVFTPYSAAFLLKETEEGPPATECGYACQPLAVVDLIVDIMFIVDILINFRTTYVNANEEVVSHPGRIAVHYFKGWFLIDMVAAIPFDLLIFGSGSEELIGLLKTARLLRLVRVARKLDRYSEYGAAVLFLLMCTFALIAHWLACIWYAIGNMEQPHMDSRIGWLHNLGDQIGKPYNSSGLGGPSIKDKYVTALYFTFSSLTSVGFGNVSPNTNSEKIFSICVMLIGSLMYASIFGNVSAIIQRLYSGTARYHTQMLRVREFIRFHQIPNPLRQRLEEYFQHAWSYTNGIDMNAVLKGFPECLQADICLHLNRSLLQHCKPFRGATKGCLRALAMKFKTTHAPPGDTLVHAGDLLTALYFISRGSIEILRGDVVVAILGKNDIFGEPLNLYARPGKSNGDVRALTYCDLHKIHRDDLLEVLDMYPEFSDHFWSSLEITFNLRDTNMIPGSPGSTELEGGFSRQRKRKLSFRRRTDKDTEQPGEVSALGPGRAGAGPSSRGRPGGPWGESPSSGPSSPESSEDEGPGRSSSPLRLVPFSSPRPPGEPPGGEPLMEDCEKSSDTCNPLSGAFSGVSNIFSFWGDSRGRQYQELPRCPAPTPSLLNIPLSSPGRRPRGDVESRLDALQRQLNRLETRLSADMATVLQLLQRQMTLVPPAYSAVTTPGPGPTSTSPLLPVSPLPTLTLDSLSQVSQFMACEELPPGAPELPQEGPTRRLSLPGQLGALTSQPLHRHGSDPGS

Row | Structure (SMILES) | hERG current change (%, negative = inhibition) at 10uM [%]
1 | O=C(NCCCN1CCOCC1)c1ccc2c(=O)n(Cc3ccccc3)c(=S)[nH]c2c1 | 10.7
2 | O=C(Cn1nc(Cc2cccnc2)c2ccccc2c1=O)N1CCC2(CC1)OCCO2 | -7.93
3 | O=[N+]([O-])c1ccccc1CNc1ccc(F)c(Cl)c1 | -10.8
4 | COCC(COS(N)(=O)=O)Cc1ccccc1 (stereo not shown) | 7.25
5 | CN1CCN(C(=O)CN(Cc2ccccc2)S(C)(=O)=O)CC1 | 25.7
6 | O=C(COc1ccc(Cl)cc1)Nc1cc2c3c(c1)CC(=O)N3CCC2 | -57.1
7 | CSc1ccc(S(=O)(=O)NCC(=O)OCC(=O)N2CC(C)CC(C)C2)cc1[N+](=O)[O-] (stereo not shown) | -22.2
8 | Cc1ccc(C(=O)C(NC(=O)c2ccco2)Nc2sc3c(c2C(N)=O)CCCC3)cc1 (stereo not shown) | -38.4
9 | CCC(Sc1ncccc1C(=O)Oc1cccc([N+](=O)[O-])c1)C(=O)Nc1ccccc1OC (stereo not shown) | 3.56
10 | CC(C)N(Cc1nc(-c2ccccc2)no1)C(=O)c1ccc(Br)o1 | -18.8
11 | CC(C)CNS(=O)(=O)c1cc2c3c(c1)CCC(=O)N3CCC2 | 1.59
12 | CCOC(=O)CC1C(=O)NCCN1C(=S)Nc1ccccc1 (stereo not shown) | 10.3
13 | Cc1ccc(Nc2cc(C)c3c(O)cccc3n2)cc1C.Cl | 19
14 | O=C(NC12CC3CC(CC(C3)C1)C2)c1cc(F)c(F)cc1Cl | 9.46
15 | Cc1ccc2[nH]c(=O)c(Cc3ccccc3)c(O)c2c1 | 9.62
16 | O=C(NCc1ccco1)Oc1ccccc1 | 2.24
17 | O=C(CSc1nnc(CNC(=O)c2ccccc2)o1)NCc1ccc(F)cc1 | 4.25
18 | COc1cccc(-c2nc(C(N)=O)c3[nH]c(=O)n(-c4cccc(Cl)c4)c3n2)c1OC | 3.23
19 | Cc1ccc(NC(=O)CN(C)C(=O)c2n[nH]c(=O)c3ccccc23)cc1 | -26.3
20 | Cc1ccc(N(CC(=O)NCc2ccccc2Cl)S(=O)(=O)c2cccs2)cc1 | 9.48

Row | Structure (SMILES) | hERG current change (%, negative = inhibition) at 10uM [%]
21 | Cc1ccc(S(=O)(=O)NC(C)(C)CSc2nnc(N)s2)cc1 | -6.4
22 | Cc1c(C(C)(C)O)[nH]c2ccc(C#N)cc12 | 26.4
23 | O=C(CCS(=O)(=O)c1ccc(Cl)cc1)Nc1ccc(N2CCOCC2)cc1 | -6.95
24 | COc1coc(C(O)CN)cc1=O (stereo not shown) | 4.57
25 | COc1ccc(-c2cc(-c3ccccc3)c(C#N)c(S(C)(=O)=O)n2)cc1 | -19.4
26 | Nc1cc(N)nc(SCC(=O)c2ccc3c(c2)NC(=O)CO3)n1 | 8.41
27 | Cc1cc(=O)[nH]c(N/N=C/c2ccccn2)n1 | 13
28 | Clc1ccccc1Cc1noc(CN2CCN(Cc3ccccn3)CC2)n1 | 2.78
29 | COc1ccc(NC(=S)N2CCN(C(=O)C3CCCO3)CC2)cc1 (stereo not shown) | 11.8
30 | CNC(=S)Nc1cccc(S(=O)(=O)NC2=NCCC2)c1 | -7.6
31 | C#CCOc1ccc(/C=C2\SC(=S)N(Cc3cccnc3)C2=O)cc1 | 15.9
32 | CCn1c(=O)c([N+](=O)[O-])c(NC2CCS(=O)(=O)C2)c2ccccc21 (stereo not shown) | 5.85
33 | O=C(CCCN=C1NS(=O)(=O)c2ccccc21)OCc1ccccc1 | -31
34 | Cc1ccc(C(=O)CSc2nnc3c4ccccc4nc(Cc4ccccc4)n23)cc1 | 7.05
35 | CC(C)(C)c1cc(CCC(=O)NCc2ccncc2)cc(C(C)(C)C)c1O | 3.59
36 | COC(=O)c1sccc1NC(=O)CSc1nnnn1-c1ccccc1C | 8.65
37 | COc1cccc(N(CC(=O)Nc2ccccc2C)S(C)(=O)=O)c1 | 0.38
38 | Cc1ccc(NC(=O)C/C(N)=N/O)cc1Cl | 15.4
39 | C/C=C/c1ccc(OCCNCc2ccccc2)c(OC)c1.O=C(O)C(=O)O | -39.8
40 | COc1ccc(/C=C/c2c([N+](=O)[O-])c(=O)n(C)c(=O)n2C)cc1 | 19.7

Row | Structure (SMILES) | hERG current change (%, negative = inhibition) at 10uM [%]
41 | O=C(NCCCN1CCOCC1)c1cc(-c2ccccc2)nc2ccccc12 | -18.3
42 | CCC(Sc1nc(C)cc(C)n1)C(=O)Nc1ccc(S(N)(=O)=O)cc1 (stereo not shown) | -6.82
43 | Cc1ccc(NC(=O)Cc2ccc([N+](=O)[O-])cc2)c(Br)c1 | -0.402
44 | COC(=O)CCC(=O)NNC(=O)c1cccc(Br)c1 | 0.11
45 | O=C1c2cccnc2C(=O)N1c1ccccc1-c1ccccc1 | 17.3
46 | Cc1cc(C)n2nc(SCCC(=O)NCCc3ccccc3)nc2n1 | -6
47 | CCc1ccc(C(=O)NN(C(=O)c2ccc(CC)cc2)C(C)(C)C)cc1 | -7.52
48 | C=CCNC(=O)CSc1nnc(-c2ccccn2)n1Cc1ccccc1 | 3.01
49 | CC(NC(=O)CN(C)S(=O)(=O)c1ccc(Br)s1)c1ccccc1 (stereo not shown) | 12.8
50 | CCNS(=O)(=O)c1ccc(CCC(=O)N2CCN(c3ccccc3)CC2)cc1 | -16.8
51 | CC1c2cccn2CCN1S(=O)(=O)c1ccccc1 (stereo not shown) | 5.9
52 | O=C(NC(=S)Nc1cc(Cl)ccc1O)c1cccc(Br)c1 | 16.3
53 | O=C(NCc1ccco1)c1cnn2c(C(F)(F)F)cc(-c3ccco3)nc12 | -12.6
54 | Cc1ccc(OCCNC(=O)c2ccccc2O)cc1 | 8.04
55 | O=C(/C=C/c1ccccc1)NC(NC(=S)Nc1ccc(Cl)cc1)C(Cl)(Cl)Cl (stereo not shown) | 15
56 | O=c1cc(-c2ccccc2)nc2nc[nH]n12 | 16.3
57 | CC(=O)c1cn(S(=O)(=O)c2ccccc2)c2ccccc12 | -6.8
58 | CCOc1ccc(NC(=O)COC(=O)c2cccnc2)cc1 | 7.48
